Measurements taken from PubChem BioAssay AID651568 (National Center for Advancing Translational Sciences (NCATS), 2012).
Screen size: about 1,200 compounds; about 55 (5%) were called active. About 15% were inconclusive and are not listed. Calls follow the shape of the dose curve; as a rule, active = well fitted inhibition curve with a large enough effect; inconclusive = small, poorly fitted or top-dose-only effect; inactive = no such curve, though single readings can be large or run the other way. The list shows a part of the results.

experiment: qHTS Assay to Find Inhibitors of Chronic Active B-Cell Receptor Signaling: Hit Validation in Renilla Reporter Assay; conditions: TMD8 IkB-Renilla luciferase reporter, NF-kB signaling; series mostly up to 57.5 µM; activity change, negative = inhibition: at the top concentration; also: nearly all actives have a fitted effect of over 70% in size
How it was run: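 Dual-Glo luminescence read-out of constitutively expressed IkB-Photinus/Renilla luciferase reporters in ABC-DLBCL lines, used to retest primary hits; reporter enzymes differ from the click beetle luciferases used in the primary screen.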
% is scaled to controls: 0 for no effect and ±100 for the full control effect.

| SMILES | activity change, negative = inhibition |
| --- | --- |
| Cc1ccc(/C(C#N)=C\c2ccc(N3CCOCC3)o2)cc1 | inactive: -20.7% |
| COc1ccc(CCNC(=O)C(=O)c2c(C)n(C)c3ccccc23)cc1OC | inactive: 1.47% |
| COc1cc(Br)cc(/C=C/c2ccc3cccc(O)c3n2)c1O | inactive: -27.7% |
| CCOc1cc(C(=O)N/N=C(\C)Cc2ccc(OC)cc2)cc(OCC)c1OCC | inactive: -7.08% |
| CCOc1ncccc1C(=O)N1CCN(c2cccc(C)c2C)CC1 | inactive: 1.81% |
| O=C1NC(=Nc2ccc(O)cc2)S/C1=C\C=C\c1ccco1 | inactive: -0.0749% |
| CCOC(=O)C(NC(=O)N(C)C)(Nc1sc(C)c(CC)c1C#N)C(F)(F)F (configuration not stated) | inactive: 2.92% |
| NCCNC(=O)Cc1ccc(NC(=O)Cc2ccc(Nc3ncnc4c3ncn4[C@@H]3O[C@H](CO)[C@@H](O)[C@H]3O)cc2)cc1 | inactive: -11.2% |
| CCOc1cc(Br)c(C=O)cc1OCC | inactive: -3.14% |
| O=C(COc1ccc(C(=O)c2ccc(F)cc2)cc1)NCc1ccc(F)cc1 | inactive: 1.41% |
| Cc1cc(=O)[nH]c2ccc(S(=O)(=O)Nc3ccc(O)cc3)cc12 | inactive: 9.49% |
| COc1ccc(N(C(=O)c2ccccc2C)S(=O)(=O)c2cccs2)cc1 | inactive: 12.6% |
| O=C1NC(=O)C(=C2CCCCCC2)S1 | inactive: -1.65% |
| O=C(N/N=C/c1ccc([N+](=O)[O-])o1)c1cc(-c2ccc(-c3ccccc3)cc2)nc2ccccc12 | inactive: 2.9% |
| CCOc1ccc2c(c1)C(C)=CC(C)(C)N2S(=O)(=O)c1ccc(C)cc1 | inactive: -10.9% |
| CCOC(=O)CSc1nc(C)c2cccc(C)c2n1 | inactive: 0.405% |
| COc1cc2c(c(OC)c1OC)C(c1ccc(C)cc1)CC(=O)O2 (configuration not stated) | inactive: 8.03% |
| CSc1ccc(COC(=O)c2cc([N+](=O)[O-])ccc2N2CCOCC2)cc1 | inactive: -21.4% |
| CCCC(=O)O[C@]1(C(=O)CO)CC[C@H]2[C@@H]3CCC4=CC(=O)CC[C@]4(C)[C@H]3[C@@H](O)C[C@@]21C | inactive: 10.2% |
| COc1ccc(-c2nn(-c3ccccc3)cc2/C=C/C(=O)O)cc1[N+](=O)[O-] | inactive: -19.2% |
| CCOc1cc(-c2cc(-c3ccc(NC(C)=O)cc3)nc(N)c2C#N)ccc1O | inactive: -20.3% |
| CN(CC(=O)Nc1ccccc1C(F)(F)F)C(=O)c1ccccc1Sc1ccccc1C#N | inactive: 27.4% |
| CN(C)NC(=S)NC(=O)C12CC3CC(CC(C3)C1)C2 | inactive: -3.5% |
| Nc1ncnc2c1ncn2[C@@H]1O[C@H](CNCc2cccc(C#Cc3ccccc3)c2)[C@@H](O)[C@H]1O | inactive: -0.571% |
| CCOC(=O)c1ccccc1NC(=O)Cn1c(-c2nonc2N)nc2ccccc21 | inactive: -4.59% |
| COc1ccc(NC(=O)C(=O)c2cn(CC(=O)N3CCCC3)c3ccccc23)cc1 | inactive: 5.43% |
| CCn1ncc(C2=NOC(C(=O)NCc3ccc(Cl)cc3)C2)c1C (configuration not stated) | inactive: -9.03% |
